{
  "source": "PubChem BioAssay AID588453",
  "about": "(National Center for Advancing Translational Sciences (NCATS), 2011)",
  "note": "The whole screen tested about 390,000 compounds, of which about 4,000 (1%) were called active. The shares of active, inactive and inconclusive entries below differ from those in the screen. The call rests on the fitted dose curve; in most records, active means well fitted inhibition curve with a large enough effect; inconclusive means small, poorly fitted or top-dose-only effect; inactive means no such curve, though single readings can be large or run the other way. A potency beside an inconclusive call is a rough fit, not a confirmed value. On the % scale 0 is the no-effect control and ±100 the full control effect; potency means the concentration at half of the fitted maximal effect; tags describe the fitted curve by direction and shape.",
  "data": [
    {"biological_target": "Thioredoxin reductase 1, cytoplasmic (Rattus norvegicus) (UniProt O89049)", "sequence (O89049 whole entry, looked up)": "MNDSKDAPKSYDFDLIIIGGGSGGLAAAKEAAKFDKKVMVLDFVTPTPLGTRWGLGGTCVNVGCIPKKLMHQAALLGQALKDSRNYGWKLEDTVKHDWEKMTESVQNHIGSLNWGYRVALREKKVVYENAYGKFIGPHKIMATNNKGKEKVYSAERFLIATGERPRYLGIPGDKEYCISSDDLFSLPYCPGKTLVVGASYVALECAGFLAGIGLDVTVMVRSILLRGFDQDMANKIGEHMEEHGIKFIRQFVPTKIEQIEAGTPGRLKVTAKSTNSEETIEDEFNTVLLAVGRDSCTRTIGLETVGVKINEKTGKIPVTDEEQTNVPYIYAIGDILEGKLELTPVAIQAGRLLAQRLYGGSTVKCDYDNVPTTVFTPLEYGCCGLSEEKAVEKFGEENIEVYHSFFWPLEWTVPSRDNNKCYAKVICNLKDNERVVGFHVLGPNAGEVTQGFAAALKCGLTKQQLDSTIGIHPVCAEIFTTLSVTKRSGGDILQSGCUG", "test": "qHTS Assay for Inhibitors of Mammalian Selenoprotein Thioredoxin Reductase 1 (TrxR1): qHTS; further: nearly all actives have a fitted effect of over 65% in size", "conditions": "recombinant rTrxR1, NADPH fluorescence consumption, selenite substrate; series mostly up to 114 µM; activity change, negative = inhibition: at the top concentration", "method_in_brief": "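Rat TrxR1 (90 nM in the dispensed reagent) was pre-reduced with 400 uM NADPH for 5 min at room temperature, then incubated with compound for 15 min. After 400 uM selenite was added, NADPH fluorescence (Ex 340/Em 450 nm) was followed for 8 min.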", "values": [
      {"smiles": "CCOC(=O)CC(=O)CSc1nc2nc(C)cc(C)n2n1", "Potency": "inconclusive: 1.26 µM [inhibitor, full curve]"},
      {"smiles": "COc1ccc(S(=O)(=O)N(C)C[C@@H]2Oc3ccc(NS(C)(=O)=O)cc3C(=O)N([C@@H](C)CO)C[C@H]2C)cc1", "Potency": "inconclusive: 39.8 µM [inhibitor, partial curve]"},
      {"smiles": "CC(C)(C)C(=O)Nc1ccccc1C(=O)NCc1ccco1", "Potency": "inconclusive: 89.1 µM [inhibitor, single point]"},
      {"smiles": "Cn1cnc([N+](=O)[O-])c1SCCO", "Potency": "inconclusive: 28.2 µM [inhibitor, single point]"},
      {"smiles": "Nc1nc(SCC(=O)Nc2cccc(F)c2)n[nH]1", "activity change, negative = inhibition": "inactive: 8.48%"},
      {"smiles": "COc1cc2c(cc1OC)CN(C(=O)/C=C/c1ccccc1[N+](=O)[O-])CC2", "activity change, negative = inhibition": "inactive: 21.2%"},
      {"smiles": "CCCC1=C(C(=O)OCC)C(c2c(C)nn(-c3ccccc3)c2Cl)C(C#N)=C(N)O1", "note": "(stereo not drawn)", "Potency": "inconclusive: 70.8 µM [inhibitor, single point]"},
      {"smiles": "COc1cccc(CNC(=O)C2CCCN(S(=O)(=O)c3ccc4c(ccn4C)c3)C2)c1", "note": "(stereo not drawn)", "activity change, negative = inhibition": "inactive: 27.2% [at 57.1 µM]"},
      {"smiles": "NC(=O)CSc1nnc(-c2ccco2)n1-c1ccccc1", "activity change, negative = inhibition": "inactive: 5.69%"},
      {"smiles": "Cc1cc(C)c(NC(=S)NC(=O)c2c(Cl)c(C)nn2C)c([N+](=O)[O-])c1", "Potency": "inconclusive: 39.8 µM [inhibitor, full curve, poor fit]"},
      {"smiles": "Cc1ccc(Cl)cc1NC(=O)c1oc2c(c1C)-c1[nH]ncc1CC2", "activity change, negative = inhibition": "inactive: 5.89%"},
      {"smiles": "CCSc1ncc(Cl)c(C(=O)Nc2ccccc2)n1", "activity change, negative = inhibition": "inactive: 2.57%"},
      {"smiles": "CCOC(=O)COc1ccc(-c2nnc(-c3ccccc3)o2)cc1", "activity change, negative = inhibition": "inactive: 6.75%"},
      {"smiles": "CCC(NC(=O)CCc1c(C)c2cc3c(C)c(C)oc3cc2oc1=O)C(=O)N[C@@H](Cc1ccccc1)C(=O)O", "note": "(stereo partly drawn)", "Potency": "inconclusive: 70.8 µM [inhibitor, partial curve]"},
      {"smiles": "CNC(=S)NNC(=O)c1c(C)nc2cc(C)ccn12", "activity change, negative = inhibition": "inactive: -7.63%"},
      {"smiles": "CC(Nc1ncnc2ccccc12)c1ccccc1", "note": "(stereo not drawn)", "activity change, negative = inhibition": "inactive: 1.7%"},
      {"smiles": "NC(=O)NCCC1=CCCCC1", "activity change, negative = inhibition": "inactive: 25.1%"},
      {"smiles": "COc1ccc(C(=O)NC(=S)Nc2ccc3oc(=O)ccc3c2)cc1", "Potency": "inconclusive: 31.6 µM [inhibitor, partial curve]"},
      {"smiles": "CCOc1ccc(C(=O)CN2CCN(S(=O)(=O)c3ccc(F)cc3)CC2)cc1", "Potency": "inconclusive: 56.2 µM [inhibitor, partial curve, poor fit]"},
      {"smiles": "COc1cc2c(cc1OC)C(C)=NCC2", "Potency": "inconclusive: 25.1 µM [inhibitor, single point]"},
      {"smiles": "COc1cc(C(=O)Nc2cc(C)ccc2OCc2cc(=O)n3c(C)csc3n2)cc(OC)c1OC", "activity change, negative = inhibition": "inactive: 14.5% [at 57.1 µM]"},
      {"smiles": "CCOc1ccc(-c2cc(OC(=O)c3ccc(F)cc3)c3c(C)oc(C)c3c(=O)c2)cc1", "Potency": "inconclusive: 50.1 µM [inhibitor, partial curve, poor fit]"},
      {"smiles": "COc1ccc2cc(CN(CCO)C(=O)c3ccc(Br)cc3)c(=O)[nH]c2c1", "activity change, negative = inhibition": "inactive: -12.9%"},
      {"smiles": "S=C(NCc1ccco1)Nc1ccc(Cl)c(Cl)c1", "Potency": "inconclusive: 8.91 µM [inhibitor, full curve, poor fit]"},
      {"smiles": "CCOC(=O)N1CC=C2C(C#N)=C(N)C(C#N)(C#N)[C@H](c3ccc(OC(C)C)c(OCC)c3)[C@H]2C1", "Potency": "inconclusive: 39.8 µM [inhibitor, partial curve, poor fit]"},
      {"smiles": "COc1cc(OC)cc(C(=O)NC(=S)NCCc2ccccc2)c1", "Potency": "inconclusive: 39.8 µM [inhibitor, partial curve]"},
      {"smiles": "O=C1CC(c2cccs2)Sc2nc3ccccc3n21", "note": "(stereo not drawn)", "Potency": "inconclusive: 8.91 µM [inhibitor, partial curve]"},
      {"smiles": "O=C(CSc1nc2ccccc2o1)Nc1ccc(N2CCOCC2)cc1", "activity change, negative = inhibition": "inactive: 29.1%"},
      {"smiles": "CC1=C(C(=O)OCc2ccccc2)C(c2ccoc2)C(C#N)=C(N)O1", "note": "(stereo not drawn)", "Potency": "inconclusive: 25.1 µM [inhibitor, partial curve]"},
      {"smiles": "C=C(Br)CN1CCN(CC(=C)Br)CC1", "Potency": "active: 12.6 µM"},
      {"smiles": "Cc1nc(N)sc1-c1ccccc1", "Potency": "inconclusive: 100 µM [inhibitor, partial curve, poor fit]"},
      {"smiles": "COc1ccc(CCNC(=O)c2ccc3c(c2)CCN3S(=O)(=O)c2ccccc2)cc1", "activity change, negative = inhibition": "inactive: 7.21%"},
      {"smiles": "CCOc1cc(C(c2c(C)[nH]n(-c3ccccc3)c2=O)c2c(C)[nH]n(-c3ccccc3)c2=O)ccc1O", "Potency": "inconclusive: 56.2 µM [inhibitor, partial curve, poor fit]"},
      {"smiles": "Clc1ccc(Cn2c3c(c4ccccc42)CCc2cc4ccccc4nc2-3)cc1", "Potency": "inconclusive: 89.1 µM [inhibitor, single point]"},
      {"smiles": "COc1cc(OC)c2c(c1C(CCN1CCCC(C)C1)c1ccc(N(C)C)cc1)OC(=O)CC2c1ccc(N(C)C)cc1", "note": "(stereo not drawn)", "activity change, negative = inhibition": "inactive: -31.1%"},
      {"smiles": "O=C(Cn1c(=O)n(Cc2ccco2)c(=O)c2c3c(sc21)CCCCC3)c1ccccc1", "Potency": "inconclusive: 7.94 µM [inhibitor, partial curve, poor fit]"},
      {"smiles": "O=C(NC1CCCN(Cc2ccc(Cl)cc2)C1)C1CCC1", "note": "(stereo not drawn)", "Potency": "inconclusive: 79.4 µM [inhibitor, single point]"},
      {"smiles": "O=C1OC(/C=C/c2ccc(Cl)cc2)=NC/1=C/c1ccco1", "Potency": "inconclusive: 89.1 µM [inhibitor, single point]"},
      {"smiles": "CCN(Cc1ccncc1)S(=O)(=O)c1ccc(C(C)=O)cc1", "Potency": "inconclusive: 25.1 µM [inhibitor, full curve]"},
      {"smiles": "COc1ccc(Cc2noc(CN3CCCN(C4Cc5ccccc5C4)CC3)n2)cc1OC", "Potency": "inconclusive: 89.1 µM [inhibitor, single point]"},
      {"smiles": "CCc1oc(C(=O)OC)cc1CSC(=N)N", "Potency": "inconclusive: 20 µM [inhibitor, full curve]"},
      {"smiles": "COc1ccc(OC)c(NC(=O)c2c(NCc3cccs3)sc3c2CCCCC3)c1", "Potency": "inconclusive: 14.1 µM [inhibitor, partial curve]"},
      {"smiles": "COc1cc(OC)cc(C(=O)NC(=S)Nc2ccc(Cl)c(C(=O)O)c2)c1", "Potency": "inconclusive: 7.94 µM [inhibitor, full curve]"},
      {"smiles": "O=C(CSc1nnc(-c2ccccn2)n1Cc1ccco1)c1ccc(-c2ccccc2)cc1", "Potency": "inconclusive: 20 µM [inhibitor, full curve]"},
      {"smiles": "CC(=O)O[C@H]1C(=O)[C@@]2(C)C([C@H](OC(=O)c3ccccc3)[C@]3(O)C[C@H](OC(=O)[C@H](O)[C@@H](NC(=O)c4ccccc4)c4ccccc4)C(C)=C1C3(C)C)[C@]1(OC(C)=O)CO[C@@H]1C[C@@H]2O", "note": "(stereo partly drawn)", "Potency": "inconclusive: 4.23 µM [inhibitor, single point]"},
      {"smiles": "O=C(c1c(O)cc(O)cc1O)C1c2c(cc(O)c3c2O[C@H](c2ccc(O)cc2)[C@@H](O)C3)OC1c1ccc(O)cc1", "note": "(stereo partly drawn)", "Potency": "inconclusive: 11.2 µM [inhibitor, partial curve, poor fit]"},
      {"smiles": "O=C1c2ccccc2-c2c1cccc2C(=O)N1CCOCC1", "Potency": "inconclusive: 100 µM [inhibitor, single point]"},
      {"smiles": "Cc1ccc(S(=O)(=O)NC2OC(=O)C(Cl)=C2Cl)cc1", "note": "(stereo not drawn)", "Potency": "active: 10 µM"},
      {"smiles": "O=C1C(N2CCOCC2)=C(n2nnc3ccccc32)C(=O)c2ccccc21", "activity change, negative = inhibition": "inactive: -20.2%"},
      {"smiles": "COc1ccc(-c2cc(C)no2)cc1S(=O)(=O)N1CCN(c2cccc(C)c2)C(C)C1", "note": "(stereo not drawn)", "Potency": "inactive"},
      {"smiles": "CCN(CC)C(=O)C1CC(=O)N(c2ccc(OC)cc2)C1c1ccc(OC)cc1", "note": "(stereo not drawn)", "activity change, negative = inhibition": "inactive: 13.9%"},
      {"smiles": "CCOc1cc(/C=N/NC(=O)c2nn(C)cc2Br)ccc1OCc1ccccc1Cl", "activity change, negative = inhibition": "inactive: -4.55%"},
      {"smiles": "COc1cccc(CN2C(=O)c3ccccc3Sc3ccc(C(=O)NCc4ccccc4)cc32)c1", "activity change, negative = inhibition": "inactive: 16.6%"},
      {"smiles": "CCC(CO)Nc1ncc([N+](=O)[O-])cc1C#N", "note": "(stereo not drawn)", "Potency": "inconclusive: 70.8 µM [inhibitor, partial curve]"},
      {"smiles": "O=C(NC1CCCC1)c1ccc(CS(=O)(=O)Cc2ccccc2F)o1", "activity change, negative = inhibition": "inactive: 13%"},
      {"smiles": "CC(C)(C)c1ccccc1NC(=O)COC(=O)CN1C(=O)NC2(CCCC2)C1=O", "Potency": "inconclusive: 79.4 µM [inhibitor, partial curve]"},
      {"smiles": "Cc1cccc(NC(=S)NN(Cc2ccccc2)c2ccccc2)c1C", "activity change, negative = inhibition": "inactive: -20.4%"},
      {"smiles": "CCOc1ccc(S(=O)(=O)N2CCN(C(=O)COc3ccc(Br)cc3)CC2)cc1", "activity change, negative = inhibition": "inactive: 12.1%"},
      {"smiles": "Cc1ccc(-c2cc(C(=O)NCc3ccco3)c3ccccc3n2)s1", "Potency": "inconclusive: 8.91 µM [inhibitor, partial curve, poor fit]"},
      {"smiles": "CC(C)C1C2=C(CC(C)(C)CC2=O)ON1c1ccccc1", "note": "(stereo not drawn)", "Potency": "inconclusive: 25.1 µM [inhibitor, single point]"},
      {"smiles": "Cc1ncc(N=Nc2ccccc2Cl)c(-c2ccccc2)n1", "activity change, negative = inhibition": "inactive: -3.25% [at 57.1 µM]"},
      {"smiles": "CCOC(=O)c1cc2c(=O)n3ccccc3nc2n(Cc2ccco2)c1=NC(=O)c1ccc(C(C)(C)C)cc1", "Potency": "inconclusive: 15.8 µM [inhibitor, partial curve]"},
      {"smiles": "CCNC(=S)Nc1ccc(C)c(S(=O)(=O)Nc2ccccc2OC)c1", "Potency": "inconclusive: 25.1 µM [inhibitor, full curve]"},
      {"smiles": "Cc1cc(C(=O)NC2CC(C)(C)Cc3c2cnn3-c2ccccc2C)c(C)o1", "note": "(stereo not drawn)", "Potency": "inconclusive: 70.8 µM [inhibitor, single point]"},
      {"smiles": "CCCc1[nH]nc2c1C(CCc1ccccc1)C(C#N)=C(N)O2", "note": "(stereo not drawn)", "Potency": "inconclusive: 22.4 µM [inhibitor, partial curve, poor fit]"},
      {"smiles": "C=CC[C@H](CC(=O)N(CCO)Cc1ccccc1)C(=O)N[C@H](C)COC(=O)[C@@H](CC=C)Cc1ccc(F)cc1", "activity change, negative = inhibition": "inactive: 3.1%"},
      {"smiles": "Cc1ccc(C(=O)Oc2oc(-c3ccccc3)nc2C=Nc2ccc(N(C)C)cc2)cc1", "Potency": "inconclusive: 56.2 µM [inhibitor, partial curve, poor fit]"},
      {"smiles": "Cc1cc(C)cc(-n2ccn(CC(=O)NCCc3ccccc3)c(=O)c2=O)c1", "Potency": "inconclusive: 12.6 µM [inhibitor, full curve, poor fit]"}
    ]}
  ]
}
